Reference: PubChem BioAssay AID2675 (National Center for Advancing Translational Sciences (NCATS), 2010)
Hit rate of the full screen: of about 280,000 compounds, about 100 (0.036%) were called active. Inconclusive results, whose numbers are uncertain, are shown with a selection of clear calls. The call rests on the fitted dose curve; in most records, active means well fitted inhibition curve with a large enough effect in the signal ratio, with a control signal flat (not every such curve was filed as active); inconclusive means small, poorly fitted or top-dose-only effect, or effect the other way, or a change in a side signal; inactive means no such curve, though single readings can be large or run the other way; the % refers to the signal ratio. Potencies beside an inconclusive call are fits to weak or partial responses and may not hold up. “Side channel” marks fits to a control or component signal instead of the main read-out.

Target: Muscleblind-like protein 1 (Homo sapiens) (UniProt Q9NR56)
Chain of UniProt Q9NR56 (Q9NR56 whole entry, looked up): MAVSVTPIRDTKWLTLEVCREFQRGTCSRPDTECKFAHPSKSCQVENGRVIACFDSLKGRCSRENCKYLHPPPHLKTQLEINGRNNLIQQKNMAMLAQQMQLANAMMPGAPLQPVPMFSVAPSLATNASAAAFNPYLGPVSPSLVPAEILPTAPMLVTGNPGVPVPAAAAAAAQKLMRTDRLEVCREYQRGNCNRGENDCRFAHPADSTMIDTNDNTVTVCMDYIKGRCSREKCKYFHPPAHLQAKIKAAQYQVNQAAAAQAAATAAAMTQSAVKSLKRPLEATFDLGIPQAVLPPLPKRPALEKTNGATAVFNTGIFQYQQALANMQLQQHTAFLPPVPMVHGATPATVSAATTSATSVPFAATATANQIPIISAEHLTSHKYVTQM
Assay: qHTS Assay for Inhibitors of MBNL1-poly(CUG) RNA binding
Conditions: TR-FRET MBNL1-His/biotin-(CUG)12 binding, 665/545 ratio; activity change, negative = inhibition: at 57.5 µM (top of the series)
How it was run: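 TR-FRET between His-tagged MBNL1 and biotin-(CUG)12 RNA, detected with Tb anti-His antibody (0.055 ng/ul) and streptavidin-XL665 (5 nM), 60 min at room temperature. Compounds titrated 92 nM to 58 uM; 665/545 nm ratio normalized to buffer and complex controls.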
On the % scale 0 is the no-effect control and ±100 the full control effect; potency means the concentration at half of the fitted maximal effect; tags describe the fitted curve by direction and shape or compound fluorescence and quenching.

Row | SMILES | Potency | activity change, negative = inhibition
1 | Cc1ccc(/C=N/n2c(-c3ccco3)n[nH]c2=S)s1 | inactive | –
2 | O=C(CN1C(=O)NC2(CCCC2)C1=O)N1CCN(S(=O)(=O)c2ccccc2)CC1 | inconclusive: 39.8 µM [fluorescent, side channel, single point] | –
3 | COc1cc(NC(=O)Cc2ccc([N+](=O)[O-])cc2)c(C(=O)O)cc1OC | inconclusive: 39.8 µM [inhibitor, single point] | –
4 | COc1ccc(NC(=O)Nc2cccc([N+](=O)[O-])c2)cc1Cl | – | inconclusive: 23.4% [phenotype inactive]
5 | O=[N+]([O-])c1ccc2nc(Cl)nc(-c3ccccc3)c2c1 | inconclusive: 11.2 µM [quencher, side channel, partial curve] | –
6 | NC(=O)[C@@H]1CC2(CC(c3cccc(NC(=O)[C@@H]4CCC(=O)N4)c3)=NO2)CN1C(=O)Cc1ccc([N+](=O)[O-])cc1 (some centres not stated) | inconclusive: 10 µM [quencher, partial curve] | –
7 | CN(C)c1ccc([N+](=O)[O-])cc1C(=O)NCC(c1ccco1)N(C)C (configuration not stated) | inconclusive: 14.1 µM [quencher, partial curve] | –
8 | O=C(c1ccc(Cl)c([N+](=O)[O-])c1)N(Cc1ccccc1)C1CCS(=O)(=O)C1 (configuration not stated) | inconclusive: 2.51 µM [quencher, side channel, partial curve, poor fit] | –
9 | O=C(O)CCC(=O)NNC(=O)CCC1CCCCC1 | inactive | –
10 | O=C(c1ccco1)N1CCN(c2cc(N3CCOCC3)c(F)cc2[N+](=O)[O-])CC1 | inconclusive: 17.8 µM [quencher, side channel, partial curve] | –
11 | O=C(CS(=O)(=O)c1ccc(Cl)c(Cl)c1)Nc1ccccc1Cl | inconclusive: 3.16 µM [quencher, side channel, single point] | –
12 | Cc1cc(/C=N/NC(N)=S)c(C)n1-c1ccc(Br)cc1 | inactive | –
13 | CCc1c(C)c2cc(Cl)c(O)c(CN(CC)CC)c2oc1=O | inconclusive: 14.1 µM [quencher, side channel, partial curve] | –
14 | Fc1ccc(-c2n[nH]c(=S)n2/N=C/c2c[nH]c3ccccc23)cc1 | inactive | –
15 | CC(C)Cc1nc2sc3c(=O)n(N)cnc3c2c2c1COC(C)(C)C2 | inconclusive: 0.0891 µM [fluorescent, side channel, full curve] | –
16 | Nc1ccc2nc(-c3ccc(-c4nc5ccc(N)cc5[nH]4)cc3)[nH]c2c1 | inconclusive: 15.8 µM [quencher, side channel, partial curve] | –
17 | COc1ccc2cc(C(c3nnnn3CC3CCCO3)N3CCOCC3)c(=O)[nH]c2c1 (configuration not stated) | inactive | –
